SMILES strings stand for the structures. In all, about 310,000 compounds went through this assay and about 2,200 (0.71%) showed an effect of 50% or more. The effect is printed as a negative number. Some of the results follow.

The assay deals with human ether-à-go-go-related gene (hERG) potassium channel (human, UniProt Q12809). Briefly: primary screen, population patch clamp on CHO cells stably expressing hERG.
human ether-à-go-go-related gene (hERG) potassium channel, sequence (Q12809 whole entry, looked up): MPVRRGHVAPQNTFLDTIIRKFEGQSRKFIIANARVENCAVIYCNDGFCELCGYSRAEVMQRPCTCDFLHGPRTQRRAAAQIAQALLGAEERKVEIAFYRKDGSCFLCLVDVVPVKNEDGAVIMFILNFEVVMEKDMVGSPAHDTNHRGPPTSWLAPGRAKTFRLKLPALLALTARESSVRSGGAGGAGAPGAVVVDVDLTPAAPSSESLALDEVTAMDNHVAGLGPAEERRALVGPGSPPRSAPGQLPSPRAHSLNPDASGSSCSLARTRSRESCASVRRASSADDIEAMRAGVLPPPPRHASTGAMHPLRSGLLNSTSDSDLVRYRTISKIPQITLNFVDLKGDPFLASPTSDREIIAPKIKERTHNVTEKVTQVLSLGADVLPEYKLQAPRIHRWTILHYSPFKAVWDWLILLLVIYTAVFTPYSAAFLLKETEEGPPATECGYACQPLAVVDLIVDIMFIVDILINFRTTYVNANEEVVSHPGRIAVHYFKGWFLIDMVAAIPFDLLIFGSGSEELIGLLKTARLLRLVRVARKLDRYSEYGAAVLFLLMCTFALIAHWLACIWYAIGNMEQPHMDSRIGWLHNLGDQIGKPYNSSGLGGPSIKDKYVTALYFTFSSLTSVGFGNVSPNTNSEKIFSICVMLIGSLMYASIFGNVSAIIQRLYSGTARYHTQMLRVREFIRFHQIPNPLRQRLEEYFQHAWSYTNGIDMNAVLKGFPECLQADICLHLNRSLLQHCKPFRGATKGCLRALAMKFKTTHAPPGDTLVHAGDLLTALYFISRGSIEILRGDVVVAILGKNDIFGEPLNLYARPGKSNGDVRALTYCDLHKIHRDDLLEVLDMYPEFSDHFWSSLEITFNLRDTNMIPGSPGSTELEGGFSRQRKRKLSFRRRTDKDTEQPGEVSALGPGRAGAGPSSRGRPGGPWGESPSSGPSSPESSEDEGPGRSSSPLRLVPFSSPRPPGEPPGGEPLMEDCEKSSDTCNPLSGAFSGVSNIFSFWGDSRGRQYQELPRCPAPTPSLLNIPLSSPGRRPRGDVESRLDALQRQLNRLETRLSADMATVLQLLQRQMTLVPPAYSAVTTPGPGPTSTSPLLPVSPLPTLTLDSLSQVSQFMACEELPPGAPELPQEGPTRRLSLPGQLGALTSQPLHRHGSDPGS
With `Cc1cccc(N2CCN(CC(O)COc3ccc(Cl)cc3)CC2)c1` (centres unmarked), the “hERG current change (%, negative = inhibition) at 1uM” value is on record as -9.3%.

Turning to `O=C(CCSCCc1ccccn1)Nc1cc(F)ccc1F`, the “hERG current change (%, negative = inhibition) at 1uM” value was found to be 6.43%.

Take `N#Cc1cccc(C(=O)N(CCc2ccccc2)Cc2cccs2)c1`: the “hERG current change (%, negative = inhibition) at 1uM” value is on record as -43.9%.

With `Cc1ccc(CN2C3CCCC2CC(NC(=O)Nc2cccc(F)c2)C3)cc1` (centres unmarked), the “hERG current change (%, negative = inhibition) at 1uM” value is on record as -85.2%.

Take `O=C(Cc1ccccc1)NC(Nc1ccccc1)C(Cl)(Cl)Cl` (centres unmarked): the “hERG current change (%, negative = inhibition) at 1uM” value came out at 8.36%.

`COc1ccc(N2CCN(C(CNC(=O)C(C)C)c3ccc4c(c3)OCO4)CC2)cc1` (centres unmarked): the “hERG current change (%, negative = inhibition) at 1uM” value is given as 9.17%.

`COc1cccc(N2CCN(c3ccc(N4C(=O)CCC4=O)cc3[N+](=O)[O-])CC2)c1`: the “hERG current change (%, negative = inhibition) at 1uM” value was determined as 13.4%.

For `COc1ccccc1CN1CCNC(=O)C1CC(=O)NCc1c(C)n[nH]c1C` (centres unmarked), the “hERG current change (%, negative = inhibition) at 1uM” value amounted to 11.4%.

As to `Cc1cc(N2CCN(C3CCCCC3)CC2)n2nc(C)nc2n1`, the “hERG current change (%, negative = inhibition) at 1uM” value was -14.2%.

For `Cc1cc(NS(=O)(=O)c2ccc(NC(=O)c3cnc(Cl)c(Cl)c3)cc2)nc(C)n1`, the “hERG current change (%, negative = inhibition) at 1uM” value was determined as 4.39%.

Turning to `S=C(Nc1cccc(Cl)c1)N1CCN(c2ccccn2)CC1`, the “hERG current change (%, negative = inhibition) at 1uM” value was 17.4%.

Consider `CN(C)CCCNS(=O)(=O)c1ccc(N2CCN(Cc3ccc4c(c3)OCO4)CC2)c([N+](=O)[O-])c1`, for which the “hERG current change (%, negative = inhibition) at 1uM” value is on record as 14.4%.

`CNC(=O)Oc1ccc(N(C)C)cc1C(C)C`: the “hERG current change (%, negative = inhibition) at 1uM” value is -0.707%.

For the compound `COc1cc(OC)cc(C(=O)N[C@H](C(=O)Nc2nc(-c3cc(OC)ccc3OC)cs2)C(C)C)c1`, the “hERG current change (%, negative = inhibition) at 1uM” value is on record as 10.2%.

On to `CC(C)(C)c1ccc(-c2cc(C(=O)NNC(=O)Nc3ccccc3)c3ccccc3n2)cc1`, for which the “hERG current change (%, negative = inhibition) at 1uM” value is 5.51%.

`COc1ccc(CCNC(=O)c2nnc(Cc3ccc(Cl)cc3)o2)cc1OC`: the “hERG current change (%, negative = inhibition) at 1uM” value is 9.88%.

For `Cc1ccc(S(=O)(=O)Nc2cccc(C(=O)NCCCn3ccnc3)c2)cc1F`, the “hERG current change (%, negative = inhibition) at 1uM” value is 1.99%.

Take `CCOc1ncccc1C(=O)NCc1ccc(OC)c(OC)c1`: the “hERG current change (%, negative = inhibition) at 1uM” value is recorded as -5.01%.

Take `COc1c(F)c(F)c(-c2csc(N)n2)c(F)c1F`: the “hERG current change (%, negative = inhibition) at 1uM” value is 9.51%.

Turning to `C=CCOc1ccc(Br)cc1/C=C1\NC(=S)N(C(C)=O)C1=O`, the “hERG current change (%, negative = inhibition) at 1uM” value is listed as 14.5%.

Regarding `Cc1cc(C)c(S(=O)(=O)N2CCCC(C(=O)NCc3cccnc3)C2)c(C)c1` (centres unmarked), the “hERG current change (%, negative = inhibition) at 1uM” value worked out at 8.52%.

Turning to `O=C(Oc1ccc(-c2cnc3ccccc3n2)cc1)c1cccc([N+](=O)[O-])c1`, the “hERG current change (%, negative = inhibition) at 1uM” value is -8.4%.

As to `CC(=O)c1ccc(S(=O)(=O)Nc2ccc(-c3ccc4nnc(C)n4n3)cc2)cc1`, the “hERG current change (%, negative = inhibition) at 1uM” value is listed as 20.8%.

`O=C(Nc1ncccn1)c1ccc([N+](=O)[O-])cc1Cl`: the “hERG current change (%, negative = inhibition) at 1uM” value was 11.7%.

On to `CC(C)C(NC(=O)c1cccs1)C(=O)NC1CCCCC1` (centres unmarked), for which the “hERG current change (%, negative = inhibition) at 1uM” value is listed as 18.3%.

For `FC(F)(F)c1cccc(N2CCN(CC3CC4C=CC3C4)CC2)c1` (centres unmarked), the “hERG current change (%, negative = inhibition) at 1uM” value is given as -5.34%.

For `Cl.O=c1oc2ccccc2cc1C1=Nn2c(nnc2-c2cccnc2)SC1`, the “hERG current change (%, negative = inhibition) at 1uM” value is given as -5.24%.

Regarding `CCCCn1c(N)c(N(CCOC)C(=O)COC(=O)COc2c(C)cc(C)cc2C)c(=O)[nH]c1=O`, the “hERG current change (%, negative = inhibition) at 1uM” value was 4.18%.

Take `Oc1ccccc1-c1nc(NCc2ccccc2)c2ccccc2n1`: the “hERG current change (%, negative = inhibition) at 1uM” value is given as 7.24%.

Regarding `O=C(COc1ccccc1[N+](=O)[O-])Nc1cccc(C(=O)Nc2ccccc2C(=O)O)c1`, the “hERG current change (%, negative = inhibition) at 1uM” value is given as 15.4%.

As to `CCCn1c(N)c(C(=O)CSc2nnc(C)n2Cc2ccccc2)c(=O)n(C)c1=O`, the “hERG current change (%, negative = inhibition) at 1uM” value stood at 4.72%.

Take `CCN(CC)C(=O)c1ccccc1NC(=O)c1ccccc1SC`: the “hERG current change (%, negative = inhibition) at 1uM” value is listed as -2.03%.

Take `O=C(NCc1ccccc1F)c1cc(=O)[nH]c2ccccc12`: the “hERG current change (%, negative = inhibition) at 1uM” value worked out at 12.7%.

As for `COc1cc(/C=N/NC(=S)NCc2ccccc2)ccc1OCC#N`, the “hERG current change (%, negative = inhibition) at 1uM” value stood at 0.937%.

For `CCN(CC)C(=O)Oc1ccc2ccccc2c1Cl`, the “hERG current change (%, negative = inhibition) at 1uM” value is 6.86%.

For the compound `C=CCN(Cc1nc(-c2ccccc2)no1)C(=O)c1ccco1`, the “hERG current change (%, negative = inhibition) at 1uM” value is 9.84%.

Consider `Cn1cccc1/C=N/NC(=O)c1ccccn1`, for which the “hERG current change (%, negative = inhibition) at 1uM” value turned out to be 6.14%.

Take `COC(=O)Cc1ccc(NC(=S)N2CCCC(C)C2)cc1` (centres unmarked): the “hERG current change (%, negative = inhibition) at 1uM” value turned out to be 18.5%.

With `Cc1cc(-c2nnc(CCC(=O)N(CC3CCC3)CC3CCCO3)o2)no1` (centres unmarked), the “hERG current change (%, negative = inhibition) at 1uM” value was determined as 5.71%.

On to `COc1cc2ccccc2cc1C(=O)N(CCN(C)C)c1nc2ccc(Br)cc2s1.Cl`, for which the “hERG current change (%, negative = inhibition) at 1uM” value worked out at 11.9%.

Regarding `C=CCn1c(SC(C)C(N)=O)nc2sc(CC)cc2c1=O` (centres unmarked), the “hERG current change (%, negative = inhibition) at 1uM” value was found to be 5.7%.

As to `COc1ccc(OCc2cc(C(=O)NCC3(C)COC3)no2)c(Cl)c1`, the “hERG current change (%, negative = inhibition) at 1uM” value is 10.4%.

In the case of `CNC(=O)COC(=O)/C=C/c1cccc(F)c1`, the “hERG current change (%, negative = inhibition) at 1uM” value was found to be 13.9%.

In the case of `CC1CCC(NC(=O)N(CCCl)N=O)CC1` (centres unmarked), the “hERG current change (%, negative = inhibition) at 1uM” value worked out at 12.1%.

For the compound `CCN(CC)S(=O)(=O)c1ccc(N2CCCC2)c(C(=O)OCC(=O)/C(C#N)=C(\C)N)c1`, the “hERG current change (%, negative = inhibition) at 1uM” value came out at 12.1%.

Regarding `CC(NC(=O)/C=C/c1ccc(Br)cc1)c1ccccc1` (centres unmarked), the “hERG current change (%, negative = inhibition) at 1uM” value came to 12.2%.

On to `O=C(Nc1ccccn1)NC1CCS(=O)(=O)C1` (centres unmarked), for which the “hERG current change (%, negative = inhibition) at 1uM” value is given as -10.3%.

For `CCN1CCCc2cc(CN(CCN3CCOCC3)C(=S)Nc3cccc(OC)c3)ccc21`, the “hERG current change (%, negative = inhibition) at 1uM” value was 11.8%.

As to `C=CCn1c(=O)c2c3c(sc2n2c(Nc4ccccc4)nnc12)CCCC3`, the “hERG current change (%, negative = inhibition) at 1uM” value was 16%.

`COC(=O)c1sc(SC)nc1N`: the “hERG current change (%, negative = inhibition) at 1uM” value turned out to be 14.7%.

Take `O=C(CCC(=O)c1ccc(Br)cc1)Nc1cccnc1`: the “hERG current change (%, negative = inhibition) at 1uM” value is given as 9.29%.

With `COc1ccc(N2CCN(C(=O)CNC(=O)Cc3ccccc3)CC2)cc1`, the “hERG current change (%, negative = inhibition) at 1uM” value is recorded as -1.07%.

For `Cc1onc(-c2ccccc2Cl)c1C(=O)Nc1ccc(Br)cc1`, the “hERG current change (%, negative = inhibition) at 1uM” value worked out at 20.8%.

For `CCOc1ccccc1CNC(=O)C(C)n1nc(C)c2c(C)n(-c3ccccc3)nc2c1=O` (centres unmarked), the “hERG current change (%, negative = inhibition) at 1uM” value is -12.9%.

Regarding `Cn1c(SCC(=O)Nc2cccc(S(=O)(=O)NC3=NCCCCC3)c2)nnc1-c1ccccc1`, the “hERG current change (%, negative = inhibition) at 1uM” value stood at 9.91%.

For `O=C1c2cc(Cl)ccc2OC2(CCNCC2)C12CC(c1ccccc1)=NO2` (centres unmarked), the “hERG current change (%, negative = inhibition) at 1uM” value turned out to be 10.1%.

(Values after PMC4336329 (PLoS ONE, 2015).)
